The whole screen tested about 350,000 compounds, of which about 9,900 (2.8%) were called active. The inconclusive results got no clear call from the source; some entries with a clear call stand among them for comparison. The call rests on the fitted dose curve; in most records, active means well fitted activation curve with a large enough effect; inconclusive means small, poorly fitted or top-dose-only effect; inactive means no such curve, though single readings can be large or run the other way. Potencies of inconclusive entries are left out as doubtful fits.
Test: A quantitative high throughput screen for small molecules that induce DNA re-replication in MCF 10a normal breast cells. Further: nearly all actives have a fitted effect of over 50% in size. On activity, positive = re-replication: % of control where 0% means no effect.
Conditions: MCF 10A DNA re-replication, Hoechst nuclear intensity, 48 h; activity, positive = re-replication: at 46.1 µM (top of the series)
Potency means the concentration at half of the fitted maximal effect; tags describe the fitted curve by direction and shape.

Row | SMILES | Potency | activity, positive = re-replication
1 | O=c1cc(N2CCCCC2)c(-c2ccccc2)nn1Cc1ccc(Cl)cc1 | active: 16.4 µM | –
2 | CCc1nn(C(C)C(=O)N2CCN(c3ccc(OC)cc3)CC2)c(=O)c2cc3occc3n12 (centres undefined) | inconclusive [activator, single point] | –
3 | CNC(=S)N1N=C(c2ccc(C)cc2)CC1c1ccc(OC)cc1 (centres undefined) | inconclusive [activator, single point] | –
4 | Cc1nc(SCc2ccccc2)c2ccsc2n1 | inconclusive [activator, partial curve, poor fit] | –
5 | COCCCn1c(=O)c2sccc2n(Cc2cc(C(=O)OC)ccc2OC)c1=O | inconclusive [activator, single point] | –
6 | Cc1ccc(OCc2ccc(C(=O)NN)o2)c([N+](=O)[O-])c1 | – | inactive: -3.03%
7 | Cc1noc(/C=C/N(C)C)c1S(=O)(=O)N1CCC(C(=O)NC(C)(C)C)CC1 | – | inactive: 0.385%
8 | O=C1/C(=C\c2cccnc2)Sc2ccccc21 | inconclusive [activator, single point] | –
9 | S=c1[nH]nc(-c2ccc3ccccc3n2)n1-c1cc(Cl)cc(Cl)c1 | – | inactive: 20%
10 | c1ccc2c(c1)OCC(CNc1ncnc3sccc13)O2 (centres undefined) | – | inactive: 15.3%
11 | O=C(O)CCN1C(=O)C2C3C=CC(C3)C2C1=O (centres undefined) | inconclusive [activator, partial curve, poor fit] | –
12 | COc1ccc2nc(NC(=O)Cc3cccs3)sc2c1 | inconclusive [activator, partial curve, poor fit] | –
13 | COCC(=O)Nc1cccc(-c2ccc3nncn3n2)c1 | – | inactive: -0.0895%
14 | Cc1cc(C(=O)OCC(=O)NCc2ccco2)c(C)o1 | inconclusive [activator, full curve, poor fit] | –
15 | COc1ccc(N(C)S(=O)(=O)c2cccc(C(=O)NC3CCC(C)CC3)c2)cc1 (centres undefined) | inconclusive [activator, single point] | –
16 | COc1ccc(Cn2cccc(NC(=O)Nc3cccc(C#N)c3)c2=O)cc1 | inconclusive [activator, single point] | –
17 | CCOC(=O)c1ccc(NC(=S)N(CCN2CCCCCC2)Cc2cccs2)cc1 | inconclusive [activator, partial curve, poor fit] | –
18 | CCc1cc(=O)oc2cc(C)cc(OCC(=O)C(C)(C)C)c12 | inconclusive [activator, single point] | –
19 | NNc1ncnc2sc3c(c12)CCC3 | inconclusive [activator, single point] | –
20 | COC(=O)c1cccc(NC(=O)c2nn(C)c(=O)c3ccccc23)c1 | inconclusive [activator, partial curve, poor fit] | –
21 | CSc1cccc(NC(=O)c2sc3nc4n(c(=O)c3c2C)CCC4)c1 | – | inactive: 4.88%
22 | COC(=O)c1c(C)oc(C)c1S(=O)(=O)NC(c1ccccc1)c1ccccc1 | inconclusive [activator, partial curve, poor fit] | –
23 | Cc1ccc(C(=O)COC(=O)c2ccc3c(c2)C(=O)N(c2cccc4ncccc24)C3=O)cc1 | inconclusive [activator, full curve, poor fit] | –

Row | SMILES | Potency | activity, positive = re-replication
24 | Cc1ccc(-c2cc(C(=O)Nc3sc4c(c3C(=O)NCc3ccco3)CCC4)[nH]n2)c(O)c1 | inconclusive [activator, single point] | –
25 | O=C(CNC(=O)c1ccc(Cl)cc1)NCC(F)(F)F | inconclusive [activator, single point] | –
26 | COc1ccc(NC(=O)CN(C)CC(=O)c2c(C)[nH]c3ccccc23)cc1 | inconclusive [activator, partial curve, poor fit] | –
27 | COc1ccc(C(=O)OCc2cc(C)ccc2C)cc1S(=O)(=O)N1CCCC1 | inconclusive [activator, partial curve, poor fit] | –
28 | N#Cc1c(Nc2cccc(F)c2)sc2c(O)cc(=O)[nH]c12 | inconclusive [activator, single point] | –
29 | NCc1cc2c3c(c1)CCCN3CCC2 | inconclusive [activator, partial curve, poor fit] | –
30 | CCc1ccccc1NC(=O)Cn1nnc(C(=O)NCc2cccc(OC)c2)c1N | active: 7.31 µM | –
31 | C=CCC[C@@H](Cc1ccc(F)cc1)C(=O)OC[C@@H](NC(=O)[C@@H](CC=C)CC(=O)N(CCO)Cc1ccccc1)c1ccccc1 | inconclusive [activator, single point] | –
32 | NC(=O)CSCc1nc2ccccc2s1 | – | inactive: -2.38%
33 | CCN(Cc1cnn(C)c1)C(=O)c1cc(COc2ccc3c(c2)CCCC3)on1 | inconclusive [activator, partial curve, poor fit] | –
34 | Cc1ccc(N/C=C(\C2OC(=O)c3ccccc32)[N+](=O)[O-])c(C)c1 (centres undefined) | – | inactive: 16.4%
35 | O=[N+]([O-])/C(=C\Nc1ccccc1)S(=O)(=O)c1ccccc1 | inconclusive [activator, partial curve, poor fit] | –
36 | Cc1ccc(Cn2ncc3c(N4CCN(c5ccccc5C)CC4)ncnc32)cc1 | inconclusive [activator, single point] | –
37 | CSc1ncccc1C(=O)OC(C)C(=O)Nc1cccc(S(=O)(=O)N2CCOCC2)c1 (centres undefined) | – | inactive: 5.04%
38 | O=C(Cc1cccc(C(F)(F)F)c1)NCC(c1ccco1)N1CCCCC1 (centres undefined) | inconclusive [activator, partial curve, poor fit] | –
39 | COc1ccc2nc(NCCCNC(=O)c3cc(OC)c(OC)c(OC)c3)c(C#N)cc2c1 | – | inactive: 16.8%
40 | CSc1cccc(N2CC(C(=O)Nc3ccccc3N3CCCC3)CC2=O)c1 (centres undefined) | – | inactive: 8.49%
41 | CCOC(=O)c1oc2cc(O)c(CC)cc2c(=O)c1-c1cscn1 | – | inactive: -6.65%
42 | Cc1cc2c(cc(C(=O)OCC(=O)NC3CCCCC3)n2C)o1 | active: 25.9 µM | –
43 | COc1ccc(OC)c(-n2nnnc2SCC(=O)Nc2ccc3c(c2)OCCO3)c1 | inconclusive [activator, single point] | –
44 | COc1ccc(CCNC(=O)CCn2c(=O)[nH]c3cc(OC)c(OC)cc3c2=O)cc1OC | inconclusive [activator, partial curve, poor fit] | –
45 | CCOc1ccc(C(C(=O)NC(C)(C)C)N(CCOC)C(=O)CCC(=O)Nc2nccs2)cc1 (centres undefined) | – | inactive: -3.31%
46 | CCOC(=O)c1sc(NC(=O)c2cc(-c3ccc(C)cc3)nc3ccccc23)c(C#N)c1C | inconclusive [activator, partial curve] | –

Row | SMILES | Potency | activity, positive = re-replication
47 | Cc1ccc(C)n1-c1ccc(C(=O)N/N=C/c2ccncc2)cc1 | inconclusive [activator, partial curve, poor fit] | –
48 | CC(C)CCN1CC(=O)N2Cc3[nH]c4ccccc4c3C[C@H]2C1=O | inconclusive [activator, single point] | –
49 | CCn1c2ccccc2c2cc(CNCc3ccc(OC)cc3OC)ccc21 | active: 7.31 µM | –
50 | FC(F)(F)c1cccc(-c2nc(-c3ccncc3)no2)c1 | – | inactive: -3.72%
51 | Clc1ccccc1/C=N/NC1=Nc2cccc3cccc1c23 | inconclusive [activator, single point] | –
52 | COC(=O)/C(=C\c1ccc2c(c1)c1ccccc1n2C)NC(=O)c1ccccc1 | inconclusive [activator, partial curve, poor fit] | –
53 | O=C(C[n+]1ccccc1)N/N=C/c1ccc(Cl)c(Cl)c1 | – | inactive: 10.4%
54 | CC(C)COC(=O)NCC12C=CC(O1)C1C(=O)N(c3ccc(Cl)cc3)C(=O)C12 (centres undefined) | inconclusive [activator, single point] | –
55 | CN1CCN(/N=C/c2ccc(-c3ccccc3)cc2)CC1 | inconclusive [activator, partial curve, poor fit] | –
56 | COc1ccc(-n2c(SCC(=O)N3CCCCC3)nc3ccccc3c2=O)cc1 | – | inactive: 2.01%
57 | CCS(=O)(=O)NCCc1cc2cc(C)c(C)cc2[nH]c1=O | – | inactive: -1.14%
58 | CN(C)S(=O)(=O)c1cccc(C(=O)OCC(=O)Nc2sccc2C(N)=O)c1 | – | inactive: 1.43%
59 | O=[N+]([O-])c1ccc(N/N=C2/CCCCC2c2ccccn2)c([N+](=O)[O-])c1 (centres undefined) | inconclusive [activator, single point] | –
60 | Fc1ccc(-[n+]2nc(Nc3ccccc3)sc2-c2ccc(OCc3ccccc3)cc2)cc1 | active: 1.3 µM | –
61 | COc1ccc(-c2cc(C(=O)Nc3c(C)nn(Cc4ccccc4)c3C)no2)cc1 | inconclusive [activator, single point] | –
62 | CCOC(=O)c1c[nH]c2c3c(ccc2c1=O)CCCC3 | – | inactive: -3.89%
63 | COc1ccc(CN(CCC(c2ccccc2)c2ccco2)C(=O)c2ccco2)cc1 (centres undefined) | inconclusive [activator, single point] | –
64 | Cc1cc2ncn(-c3ncnc4scc(-c5ccccc5)c34)c2cc1C | – | inactive: 23.6%
65 | Cc1ccccc1NC(=S)NC(=O)C1CCCCC1 | – | inactive: 9.53%
66 | CCCCS/C(=C(/C#N)C(N)=O)c1cc2c([nH]1)CCCC2 | inconclusive [activator, single point] | –
67 | CCCN1CCc2c(sc(NC(=S)NC(=O)c3ccccc3)c2C#N)C1 | inconclusive [activator, single point] | –
68 | CCc1c(C)sc(NC(=O)c2cc(-c3ccc(OC)c(OC)c3)on2)c1C#N | active: 5.17 µM | –
69 | NNc1nnc2c3cc(F)ccc3n(Cc3ccccc3)c2n1 | inconclusive [activator, single point] | –

— PubChem BioAssay AID624296 (National Center for Advancing Translational Sciences (NCATS), 2012)
